Data reported in article PMC5496915, “Interactions between LHX3- and ISL1-family LIM-homeodomain transcription factors are conserved in Caenorhabditis elegans” (Scientific Reports, 2017).
Numbering of substitutions follows the chain as printed. Results are given in words; binding and its absence hold for the method and conditions named. Some entries that bind do so weakly or less than the wild type.

Legend:
[1] = target: T1, LIM-7LID V353A (C. elegans); experiment: two-hybrid; alanine mutagenic screen: LIM-7LID constructs in pGBT9, CEH-14_(LIM1+2) in pGAD10; AH109 yeast; growth on moderate (SD -H-L-W + 1 mM 3-AT) / strong (SD -H-L-W-A) selective media at three dilutions; 30 °C, 72 h (Table 2)
T1 sequence: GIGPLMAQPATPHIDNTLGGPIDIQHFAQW

[2] = target: T2, LIM-7(H359A/I360A/D361A) (C. elegans); experiment: as above
T2 sequence: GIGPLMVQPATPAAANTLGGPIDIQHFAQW

[3] = target: T3, LIM-7LID D361A (C. elegans); experiment: as above
T3 sequence: T1 sequence with A7V, D15A

[4] = target: T4, LIM-7(P350A/L351A/M352A) (C. elegans); experiment: as above
T4 sequence: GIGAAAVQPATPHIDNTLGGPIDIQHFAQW

[5] = target: T5, LIM-7LID P350A/L351A/M352A/I360A (C. elegans); experiment: as above
T5 sequence: T4 sequence with I14A

[6] = target: T6, LIM-7LID Q371A/H372A/F373A (C. elegans); experiment: as above
T6 sequence: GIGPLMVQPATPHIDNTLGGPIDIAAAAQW

[7] = target: T7, LIM-7LID G347A/I348A/G349A (C. elegans); experiment: as above
T7 sequence: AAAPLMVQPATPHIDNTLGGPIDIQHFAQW

[8] = target: T8, LIM-7LID N362A/T363A/L364A (C. elegans); experiment: as above
T8 sequence: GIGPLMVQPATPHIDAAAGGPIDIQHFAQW

[9] = target: T9, LIM-7LID M352A (C. elegans); experiment: as above
T9 sequence: T4 sequence with A4P, A5L

[10] = target: T10, LIM-7LID P350A (C. elegans); experiment: as above
T10 sequence: T4 sequence with A5L, A6M

[11] = target: T11, LIM-7LID I360A (C. elegans); experiment: as above
T11 sequence: T1 sequence with A7V, I14A

[12] = target: T12, LIM-7LID L351A (C. elegans); experiment: as above
T12 sequence: T4 sequence with A4P, A6M

[13] = target: T13, LIM-7(A374G/Q375A/W376A) (C. elegans); experiment: as above
T13 sequence: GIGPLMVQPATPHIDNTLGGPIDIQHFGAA

[14] = target: T14, LIM-7LID P350A/L351A/M352A/H359A (C. elegans); experiment: as above
T14 sequence: T4 sequence with H13A

[15] = target: T15, LIM-7LID V353A/Q354A/P355A (C. elegans); experiment: as above
T15 sequence: T1 sequence with Q8A, P9A

[16] = target: T16, LIM-7LID L351A/M352A (C. elegans); experiment: as above
T16 sequence: T4 sequence with A4P

[17] = target: T17, LIM-7LID P350A/L351A (C. elegans); experiment: as above
T17 sequence: T4 sequence with A6M

[18] = target: T18, LIM-7LID H359A (C. elegans); experiment: as above
T18 sequence: T1 sequence with A7V, H13A

[19] = target: T19, WT LIM-7LID (LIM interaction domain of LIM-7) (C. elegans); experiment: as above
T19 sequence: T1 sequence with A7V

[20] = target: T20, LIM-7LID P350A/L351A/M352A/D361A (C. elegans); experiment: as above
T20 sequence: T4 sequence with D15A

[21] = target: T21, LIM-7LID G365A/G366A/P367A (C. elegans); experiment: as above
T21 sequence: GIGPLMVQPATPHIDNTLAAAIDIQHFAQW

[22] = target: T22, LIM-7LID I368A/D369A/I370A (C. elegans); experiment: as above
T22 sequence: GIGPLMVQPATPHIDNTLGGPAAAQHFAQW

[23] = target: T23, LIM-7LID A356G/T357A/P358A (C. elegans); experiment: as above
T23 sequence: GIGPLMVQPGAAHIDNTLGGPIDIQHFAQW

[24] = target: T19, WT LIM-7LID (LIM interaction domain of LIM-7) (C. elegans); experiment: two-hybrid; AH109 yeast co-transformed with pGBT9 and pGAD10 plasmids, bait and prey in alternate vector combinations; growth on moderate (-L-W-H + 3-AT) and high (-L-W-H-A) stringency media; 30 °C, 72 h (Figure 2C)

B1: CEH-14_(LIM1+2) (tandem LIM domains of CEH-14) (domain or fragment, UniProt P20271 42-168)
chain: NNEEAICSLCDKKIRDRFVSKVNGRCYHSSCLRCSTCKDELGATCFLREDSMYCRAHFYKKFGTKCSSCNEGIVPDHVVRKASNHVYHVECFQCFICKRSLETGEEFYLIADDARLVCKDDYEQARD
binding [1]: binds | binding [2]: no binding | binding [3]: binds | binding [4]: binds | binding [5]: no binding | binding [6]: binds | binding [7]: binds | binding [8]: binds | binding [9]: binds | binding [10]: binds | binding [11]: binds | binding [12]: binds | binding [13]: binds | binding [14]: no binding | binding [15]: binds | binding [16]: binds | binding [17]: binds | binding [18]: binds | binding [19]: binds | binding [20]: no binding | binding [21]: binds | binding [22]: binds | binding [23]: binds | binding [24]: binds
